Test results from patent US7592316B2, “Peptides as NS3-serine protease inhibitors of hepatitis C virus” (Schering Corporation, priority 2000, dated 2009).
*1 amine or outer side, *2 acyl side, *3 side chain or, on linkers, in order; H or OH if unused. Where a SMILES comes first, the peptide text is derived from it. [ ]: non-standard residue; d: D form. The star is where a group is joined. ξ: configuration not given here. Pro(trans-4-NH2) = O=C([C@@H]1C[C@@H](N[*:3])CN1[*:1])[*:2]; Benzoyl(2-COOH-4,5-Cl2) = O=C(O)c1cc(Cl)c(Cl)cc1C(=O)*; Pro(4,4-S(CH2)3S) = O=C(O)[C@@H]1CC2(CN1)SCCCS2; ξPhg(3,5-(OMe)2) = COc1cc(OC)cc(C(N)C(=O)O)c1; Benzoyl(2-NO2) = O=C(c1ccccc1[N+](=O)[O-])*; Benzoyl(3-COOH) = O=C(O)c1cccc(C(=O)*)c1; Benzoyl(2-CF3) = O=C(c1ccccc1C(F)(F)F)*; Benzoyl(2-COOH) = O=C(O)c1ccccc1C(=O)*; X25 = O=C(O)c1c(F)c(F)c(F)c(F)c1C(=O)*; ξPhg(3-OMe) = COc1cccc(C(N)C(=O)O)c1; Butanoyl(3,3-Me2) = CC(C)(C)CC(=O)*; Isobutyloxycarbonyl = CC(C)COC(=O)*; X4 = CCCCC(N[*:1])C(=O)C(=O)[*:2]; Hyp = O=C(O)[C@@H]1C[C@@H](O)CN1; X2 = CCCC(N[*:1])C(=O)C(=O)[*:2]; X62 = O=S(=O)(c1cccc2cccnc12)*; dPhg = N[C@@H](C(=O)O)c1ccccc1; Chg = N[C@H](C(=O)O)C1CCCCC1; Phg = N[C@H](C(=O)O)c1ccccc1; X51 = O=C(O)C1CCC(C(=O)*)CC1; X31 = O=C(O)c1nccnc1C(=O)*; X59 = NC(=O)c1ccccc1C(=O)*; ξChg = NC(C(=O)O)C1CCCCC1; ξPhg = NC(C(=O)O)c1ccccc1; Carboxymethyl = O=C(O)C*; Orn = NCCC[C@H](N)C(=O)O; ξF = NC(Cc1ccccc1)C(=O)O; ξNle = CCCCC(N)C(=O)O; ξhSer = NC(CCO)C(=O)O; ξV = CC(C)C(N)C(=O)O; Bz = O=C(c1ccccc1)*; X68 = CCCS(=O)(=O)*; Bn = c1ccc(C*)cc1; Sar = CNCC(=O)O; tBu = CC(C)(C)*

Target: HCV NS3/NS4A protease (strain 1a) (Hepatitis C virus genotype 1a, UniProt P27958)
Test: biochemical
Settings: Compounds prepared by Solid Phase Synthesis, Table 3; read-out: Ki* CLASS

| SMILES | Ki |
| --- | --- |
| CCCC(NC(=O)[C@@H]1C[C@@H](OCC(=O)O)CN1C(=O)C(NC(=O)OCC(C)C)C(C)C)C(=O)C(=O)NCC(=O)NC(Cc1ccccc1)C(N)=O (some centres unmarked) (Isobutyloxycarbonyl-[ξV][Hyp](Carboxymethyl)[X2]G[ξF]-NH2) | > 1 µM |
| CCCC(NC(=O)[C@@H]1C[C@@H](OC(C)(C)C)CN1C(=O)[C@@H](NC(=O)c1ccccc1C(=O)O)C1CCCCC1)C(=O)C(=O)NCC(=O)NC(C(N)=O)c1cc(OC)cc(OC)c1 (some centres unmarked) ({Benzoyl(2-COOH)}-[Chg][Hyp](tBu)[X2]G[ξPhg(3,5-(OMe)2)]-NH2) | 0.101 to 1 µM |
| CCCC(NC(=O)[C@@H]1C[C@@H](OC(C)(C)C)CN1C(=O)[C@@H](NC(=O)c1cccc(C(=O)O)c1)C1CCCCC1)C(=O)C(=O)NCC(=O)N[C@H](C(N)=O)c1ccccc1 (some centres unmarked) ({Benzoyl(3-COOH)}-[Chg][Hyp](tBu)[X2]G[Phg]-NH2) | 0.101 to 1 µM |
| CCCC(NC(=O)[C@@H]1C[C@@H](OC(C)(C)C)CN1C(=O)[C@@H](NC(=O)c1c(F)c(F)c(F)c(F)c1C(=O)O)C1CCCCC1)C(=O)C(=O)N(C)CC(=O)N[C@H](C(N)=O)c1ccccc1 (some centres unmarked) (X25-[Chg][Hyp](tBu)[X2][Sar][Phg]-NH2) | > 1 µM |
| CCCCC(NC(=O)[C@@H]1C[C@@H](OC(C)(C)C)CN1C(=O)[C@@H](NS(=O)(=O)CCC)C(C)C)C(=O)C(=O)NCC(=O)N[C@H](C(N)=O)c1ccccc1 (some centres unmarked) (X68-V[Hyp](tBu)[X4]G[Phg]-NH2) | > 1 µM |
| CCCC(NC(=O)[C@@H]1C[C@@H](OCc2ccccc2)CN1C(=O)[C@H](CCCNC(=O)C1CCC(C(=O)O)CC1)NC(=O)OCC(C)C)C(=O)C(=O)NCC(=O)N[C@H](C(N)=O)c1ccccc1 (some centres unmarked) (Isobutyloxycarbonyl-[Orn](X51)[Hyp](Bn)[X2]G[Phg]-NH2) | > 1 µM |
| CCCC(NC(=O)[C@@H]1C[C@@H](OCc2ccccc2)CN1C(=O)C(NC(=O)c1ccccc1[N+](=O)[O-])C1CCCCC1)C(=O)C(=O)NCC(=O)NC(C(=O)O)c1ccccc1 (some centres unmarked) ({Benzoyl(2-NO2)}-[ξChg][Hyp](Bn)[X2]G[ξPhg]-OH) | 0.001 to 0.1 µM |
| CCCCC(NC(=O)CNC(=O)C(=O)C(CCC)NC(=O)[C@@H]1C[C@@H](OC(C)(C)C)CN1C(=O)C(NC(=O)CC(C)(C)C)C1CCCCC1)C(N)=O (some centres unmarked) ({Butanoyl(3,3-Me2)}-[ξChg][Hyp](tBu)[X2]G[ξNle]-NH2) | > 1 µM |
| CCCC(NC(=O)[C@@H]1C[C@@H](OCc2ccccc2)CN1C(=O)C(NC(=O)c1ccccc1C(F)(F)F)C1CCCCC1)C(=O)C(=O)NCC(=O)NC(C(=O)O)c1ccccc1 (some centres unmarked) ({Benzoyl(2-CF3)}-[ξChg][Hyp](Bn)[X2]G[ξPhg]-OH) | 0.101 to 1 µM |
| CCCC(NC(=O)[C@@H]1C[C@@H](OC(C)(C)C)CN1C(=O)[C@@H](NC(=O)c1ccccc1C(=O)O)C1CCCCC1)C(=O)C(=O)NCC(=O)NC(C(N)=O)c1cccc(OC)c1 (some centres unmarked) ({Benzoyl(2-COOH)}-[Chg][Hyp](tBu)[X2]G[ξPhg(3-OMe)]-NH2) | 0.101 to 1 µM |
| CCCC(NC(=O)[C@@H]1CCCN1C(=O)C(NC(=O)OCC(C)C)C(C)C)C(=O)C(=O)NCC(=O)NC(CCO)C(N)=O (some centres unmarked) (Isobutyloxycarbonyl-[ξV]P[X2]G[ξhSer]-NH2) | > 1 µM |
| CCCC(NC(=O)[C@@H]1C[C@@H](OCc2ccccc2)CN1C(=O)C(NC(=O)c1ccccc1C(N)=O)C1CCCCC1)C(=O)C(=O)NCC(=O)N[C@@H](C(N)=O)c1ccccc1 (some centres unmarked) (X59-[ξChg][Hyp](Bn)[X2]G[dPhg]-NH2) | > 1 µM |
| CCCC(NC(=O)[C@@H]1C[C@@H](OCc2ccccc2)CN1C(=O)[C@H](CCCNC(=O)c1ccccc1)NC(=O)OCC(C)C)C(=O)C(=O)NCC(=O)N[C@H](C(N)=O)c1ccccc1 (some centres unmarked) (Isobutyloxycarbonyl-[Orn](Bz)[Hyp](Bn)[X2]G[Phg]-NH2) | > 1 µM |
| CCCC(NC(=O)[C@@H]1C[C@@H](OCc2ccccc2)CN1C(=O)C(NC(=O)c1nccnc1C(=O)O)C1CCCCC1)C(=O)C(=O)NCC(=O)NC(C(N)=O)c1ccccc1 (some centres unmarked) (X31-[ξChg][Hyp](Bn)[X2]G[ξPhg]-NH2) | 0.101 to 1 µM |

Same assay, conditions: HCV protease continuous assay results, Table 1; read-out: Ki* Range

| Ki | SMILES |
| --- | --- |
| > 1 µM | CCCCC(NC(=O)[C@@H]1C[C@@H](OC(C)(C)C)CN1C(=O)[C@@H](NC(=O)OCC(C)C)C(C)(C)C)C(=O)C(=O)NCC(=O)OC (some centres unmarked) [Example 293] |
| > 1 µM | CCCC(NC(=O)[C@@H]1CCCN1C(=O)[C@H](CC1CCCCC1)NC(=O)OC(C)(C)C)C(=O)C(=O)NCC(=O)O (some centres unmarked) [Example 58] |
| > 1 µM | C=CCCC(NC(=O)[C@@H]1[C@@H]2[C@H](CN1C(=O)[C@@H](NC(=O)OC(C)(C)C)C(C)(C)C)C2(C)C)C(=O)C(=O)NCCC (some centres unmarked) [Example 354] |
| > 1 µM | CCCC(NC(=O)[C@@H]1C[C@@H]2CCCC[C@@H]2CN1C(=O)OCc1ccccc1)C(=O)C(=O)NCC(=O)O (some centres unmarked) [Example 49] |
| > 1 µM | CCC[C@@H](NC(=O)[C@@H]1C[C@@H]2CCCC[C@@H]2CN1C(=O)[C@@H](NC(=O)OC(C)(C)C)C1CCCCC1)C(=O)C(=O)NCC(=O)O [Example 63] |

| SMILES | Ki |
| --- | --- |
| CCCC(NC(=O)[C@@H]1CCCN1C(=O)[C@@H](NC(=O)OCC(C)C)C(C)C)C(=O)C(=O)NCC(=O)N[C@@H](CCC(=O)O)C(=O)O (some centres unmarked) [Example 20] (Isobutyloxycarbonyl-VP[X2]GE-OH) | > 1 µM |
| CCCC(NC(=O)[C@@H]1CC2(CN1C(=O)[C@@H](NC(=O)c1cc(Cl)c(Cl)cc1C(=O)O)C1CCCCC1)SCCCS2)C(=O)C(=O)NCC(=O)NC(C(=O)N(C)C)c1ccccc1 (some centres unmarked) [Example 174] ({Benzoyl(2-COOH-4,5-Cl2)}-[Chg][Pro(4,4-S(CH2)3S)][X2]G[ξPhg]-NMe2) | 0.001 to 0.1 µM |
| CCCC(NC(=O)[C@@H]1C[C@@H](O)CN1C(=O)[C@@H](NC(=O)OCC(C)C)C1CCCCC1)C(=O)C(=O)NCC(=O)N[C@H](C(=O)O)c1ccccc1 (some centres unmarked) [Example 206] (Isobutyloxycarbonyl-[Chg][Hyp][X2]G[Phg]-OH) | 0.101 to 1 µM |

Same assay, conditions: Table 4; HCV NS3/NS4A protease, spectrophotometric assay, 30° C., pH 6.5; read-out: Ki* Range

| SMILES | Ki |
| --- | --- |
| CCCC(NC(=O)[C@@H]1C[C@@H](NS(=O)(=O)c2cccc3cccnc23)CN1C(=O)[C@@H](NC(=O)OCC(C)C)C1CCCCC1)C(=O)C(=O)NCC(=O)N[C@H](C(N)=O)c1ccccc1 (stereo partly drawn) (Isobutyloxycarbonyl-[Chg][Pro(trans-4-NH2)](X62)[X2]G[Phg]-NH2) | 0.101 to 1 µM |
